Where two headings read alike, the source gives them in different places.
Assays:
S aureus ATCC 29213 = assay: MIC by checkerboard method; format: cell-based, Staphylococcus aureus; conditions: for MIC Amikacin / MIC Ciprofloxacin / MIC Mupirocin: Tables 5A/5B
Gm −ve bacteria = format: cell-based, Gram negative
MRSA = assay: MIC by checkerboard method, comparison with piperine; format: cell-based, Staphylococcus aureus; conditions: Tables 5A/5B
Gm +ve bacteria = format: cell-based, Gram positive
M. tb = assay: MIC of anti infective drugs alone and with potentiators; format: cell-based, Mycobacterium tuberculosis
MRSA 450 = assay: MIC by checkerboard method; format: cell-based, Staphylococcus aureus; conditions: S aureus MRSA 450
M. tuberculosis H37Rv = assay: MIC by checkerboard method; format: cell-based, Mycobacterium tuberculosis; conditions: Tables 5A/5B
MRSA 15187 = assay: MIC by checkerboard method; format: cell-based, Staphylococcus aureus; conditions: S aureus MRSA 15187
MRSA 33 = assay: MIC by checkerboard method; format: cell-based, Staphylococcus aureus; conditions: S aureus MRSA 33
[1] = with the labelled potentiator +6.25 μg/ml
[2] = with the labelled potentiator +12.5 μg/ml
[3] = with the labelled potentiator +25.0 μg/ml
[4] = with the labelled potentiator +50.0 μg/ml
[5] = with compound of formula 1a 12.5 μg/ml
[6] = with compound of formula 1a 25.0 μg/ml
[7] = with compound of formula 1a 50.0 μg/ml
[8] = Norfloxacin + potentiator vs drug alone
[9] = Ofloxacin + potentiator vs drug alone

Compound: CCC(/C=C/C(=O)N1CCCCC1)=C\c1ccc2c(c1)OCO2 [compound of formula 1a, 4-ethyl-5-(3,4-methylenedioxyphenyl)-2E,4E-pentadienoic acid piperidine amide]
- MIC Amikacin (S aureus ATCC 29213; [1]): 1.0 mg/L
- MIC Ciprofloxacin (S aureus ATCC 29213; [1]): 0.12 mg/L
- MIC Mupirocin (S aureus ATCC 29213; [1]): 0.12 mg/L
- MIC Amikacin (S aureus ATCC 29213; [2]): 1.0 mg/L
- MIC Ciprofloxacin (S aureus ATCC 29213; [2]): 0.06 mg/L
- MIC Mupirocin (S aureus ATCC 29213; [2]): 0.06 mg/L
- MIC Amikacin (S aureus ATCC 29213; [3]): 0.5 mg/L
- MIC Ciprofloxacin (S aureus ATCC 29213; [3]): 0.06 mg/L
- MIC Mupirocin (S aureus ATCC 29213; [3]): 0.06 mg/L
- MIC Amikacin (S aureus ATCC 29213; [4]): 0.12 mg/L
- MIC Ciprofloxacin (S aureus ATCC 29213; [4]): 0.03 mg/L
- MIC Mupirocin (S aureus ATCC 29213; [4]): 0.06 mg/L
- MIC of Mupirocin (S aureus ATCC 29213; [5]): 0.06 mg/L
- MIC of Mupirocin (S aureus ATCC 29213; [6]): 0.06 mg/L
- MIC of Mupirocin (S aureus ATCC 29213; [7]): 0.03 mg/L
- MIC Drug + potentiator (Gm −ve bacteria; Norfloxacin + potentiator): 0.03 to 32 mg/L
- % decrease in MIC (Gm −ve bacteria; [8]): 0-50%
- MIC Drug + potentiator (Gm −ve bacteria; Ofloxacin + potentiator): 0.03 to 16 mg/L
- % decrease in MIC (Gm −ve bacteria; [9]): 50%
- MIC Amikacin (MRSA; [1]): 4.0 mg/L
- MIC Ciprofloxacin (MRSA; [1]): 32 mg/L
- MIC Mupirocin (MRSA; [1]): 0.12 mg/L
- MIC Amikacin (MRSA; [2]): 4.0 mg/L
- MIC Ciprofloxacin (MRSA; [2]): 16 mg/L
- MIC Mupirocin (MRSA; [2]): 0.06 mg/L
- MIC Amikacin (MRSA; [3]): 4.0 mg/L
- MIC Ciprofloxacin (MRSA; [3]): 16 mg/L
- MIC Mupirocin (MRSA; [3]): 0.06 mg/L
- MIC Amikacin (MRSA; [4]): 4.0 mg/L
- MIC Ciprofloxacin (MRSA; [4]): 8.0 mg/L
- MIC Mupirocin (MRSA; [4]): 0.03 mg/L
- MIC Drug + potentiator (Gm +ve bacteria; Norfloxacin + potentiator): 0.06 to 4 mg/L
- % decrease in MIC (Gm +ve bacteria; [8]): 50-97%
- MIC Drug + potentiator (Gm +ve bacteria; Ofloxacin + potentiator): 0.06 to 8 mg/L
- % decrease in MIC (Gm +ve bacteria; [9]): 50-76%
- MIC Drug + potentiator (M. tb; Ciprofloxacin + potentiator): 0.25 to 0.5 mg/L
- % decrease in MIC (M. tb; Ciprofloxacin + potentiator vs drug alone): 50%
- MIC Drug + potentiator (M. tb; Ofloxacin + potentiator): 0.5 to 1.25 mg/L
- % decrease in MIC (M. tb; [9]): 0-50%
- MIC of Mupirocin (MRSA 450; [5]): 0.12 mg/L
- MIC of Mupirocin (MRSA 450; [6]): 0.12 mg/L
- MIC of Mupirocin (MRSA 450; [7]): 0.06 mg/L
- MIC Rifampicin (M. tuberculosis H37Rv; [1]): 0.12 mg/L
- MIC Rifampicin (M. tuberculosis H37Rv; [2]): 0.06 mg/L
- MIC Rifampicin (M. tuberculosis H37Rv; [3]): 0.015 mg/L
- MIC of Mupirocin (MRSA 15187; [5]): 0.12 mg/L
- MIC of Mupirocin (MRSA 15187; [6]): 0.06 mg/L
- MIC of Mupirocin (MRSA 15187; [7]): 0.06 mg/L
- MIC of Mupirocin (MRSA 33; [5]): 0.06 mg/L
- MIC of Mupirocin (MRSA 33; [6]): 0.03 mg/L
- MIC of Mupirocin (MRSA 33; [7]): 0.03 mg/L
